Counter-ions that a name gives are not always drawn. This is one part of the list. The data scatter; read single values as rough.
tested on: T84; experiment: ALDHbr (CSC) cell proportion score relative to DMSO vehicle (ratio to DMSO); breast (SUM159) / gastric (MKN45) / pancreatic (PANC1) / colon cancer lines; ALDHbr cells have high ALDH activity and are rich in cancer stem cells (CSC); higher = more CSC (ALDHbr) cells remaining; settings: 10 µM; 72 h
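Also: High-content imaging of ALDEFLUOR-stained cells with Hoechst-labelled nuclei in 384-well plates, triplicate wells, scored as Z-score against 0.1% DMSO vehicle, negative meaning fewer ALDHbr cells.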

Compound | ALDHbr
C=C1/C(=C\C=C2/CCC[C@]3(C)[C@@H]([C@H](C)CCCC(C)C)CC[C@@H]23)C[C@@H](O)C[C@@H]1O [Alfacalcidol] | 0.711
Cn1c(=O)c2c(ncn2CCO)n(C)c1=O [Etofylline] | 1.02
Clc1ccc(COC(Cn2ccnc2)c2ccc(Cl)cc2Cl)c(Cl)c1 (configuration not stated) [Miconazole] | 0.996
Cc1c(F)c(N2CCNC(C)C2)cc2c1c(=O)c(C(=O)O)cn2C1CC1 (configuration not stated) [Grepafloxacin] | 0.8
Cc1nc2ccccn2c(=O)c1CCN1CCC(C(=O)c2ccc(F)cc2)CC1 [Pirenperone] | 0.98
CNCC[C@@H](Oc1ccccc1C)c1ccccc1 [Tomoxetine hydrochloride] | 0.927
CN(C)CCC=C1c2ccccc2CCc2ccccc21 [Amitryptiline hydrochloride] | 0.886
